The values below come from patent publication US9394327B1, “Nucleoside crystals, crystal nucleation and growth control with antifreeze proteins” (The Trustees of California State University, priority 2013, dated 2016).

This data set is described as follows: DSC thermodynamic stability analysis of m^5U forms. To be noted: heated 25 to 200° C. at 5° C./min. The class given is physicochemical. As to the method: Thermodynamic Stability Analysis. Both forms of m^5U were analyzed by DSC (FIG. 20). […] The first endotherm associated with water loss is at 139.07° C., whereas the second endotherm ascribed to the melting is at 185.65° C. […] Form II starts losing water and then melts at relatively lower temperatures than those of form I. The enthalpy profiles for both forms are compared in FIG. 21.
All experiments were performed with a DSC 1 (Mettler Toledo, Ohio). An indium standard (Mettler Toledo, Ohio) was used to calibrate the instrument. Samples weighed 3-4 mg and were hermetically encapsulated in standard aluminum sample pans with pierced lids to release any pressure build-up during the experiments. The samples were heated from 25 to 200° C. at a rate of 5° C./min.
(DSC measures the heat that a sample takes up or gives off during a temperature scan.)

Entries with a single value are a further part of the results.

As for `Cc1cn([C@@H]2O[C@H](CO)[C@@H](O)[C@H]2O)c(=O)[nH]c1=O` [form II, 5-methyluridine], the “DSC endotherm associated with water loss” value came out at 137.04 °C (first water molecule loss endotherm) and 153.72 °C (second water molecule loss endotherm).
